Experimental data reported in the supplement of paper PMC12217912.
The other results are listed elsewhere or left out. The full chains were built here from the parent and the listed change. Inactive controls read about 0.05.

B1: TEV protease; numbered along this chain (parent)
chain: MGESLFKGPRDYNPISSSICHLTNESDGHTTSLYGIGFGPFIITNKHLFRRNNGTLVVQSLHGVFKVKDTTTLQQHLVDGRDMIIIRMPKDFPPFPQKLKFREPQREERICLVTTNFQTKSMSSMVSDTSCTFPSGDGIFWKHWIQTKDGQCGSPLVSTRDGFIVGIHSASNFTNTNNYFTSVPKNFMELLTNQEAQQWVSGWRLNADSVLWGGHKVFMVKPEEPFQPVKEATQL

Variants of: B1
Assay: raw area under fraction-flipped curve 0-4 h after induction (AUC4h, not background-subtracted), DNA-recorder readout of cleavage of the substrate (dimensionless); higher = more cleavage of the substrate by the protease variant
Conditions: temperature: 34 °C; time window: 0-4 h after rhamnose induction
Description: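 In vivo DNA recorder in E. coli TOP10(DE3) ΔrhaA at 34 °C. Each TEVp single-site mutant (parent TEVp 0) is paired with a single-site variant of the 7-mer TEVs (canonical ENLYFQ|S). The substrate sits between flexible linkers in a Bxb1-sfGFP-TEVs-SsrA fusion, so cleavage stabilises Bxb1 and speeds flipping of a recombination array, read by NGS. The value is the raw area under the fraction-flipped curve over 0-4 h after rhamnose induction (AUC4h), with ≥20 reads per time point. It is not background-subtracted; inactive controls average about 0.047.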
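Note: Bxb1 expression induced with 0.2% (w/v) L-rhamnose at OD600 near 0.5, cultures sampled hourly, flipped fraction per protease–substrate barcode pair counted by paired-end Illumina sequencing.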

Variant	area with substrate ENLYFAS	area with substrate ENLYFCS	area with substrate ENLYFDS	area with substrate ENLYFES	area with substrate ENLYFFS	area with substrate ENLYFHS	area with substrate ENLYFIS	area with substrate ENLYFKS	area with substrate ENLYFMS	area with substrate ENLYFPS	area with substrate ENLYFRS	area with substrate ENLYFSS	area with substrate ENLYFTS	area with substrate ENLYFVS	area with substrate ENLYFYS	area with substrate ENLYFGS	area with substrate ENLYFLS	area with substrate ENLYFNS	area with substrate ENLYFWS
I164Q	0.0539	0.0392	0.0546	0.0533	0.0527	0.0543	0.0572	0.0482	0.0555	0.0484	0.0489	0.0543	0.045	0.0606	0.0602	–	–	–	–
V165P	0.0472	0.024	0.05	0.0559	0.0691	–	0.0531	–	0.0485	0.0578	0.0805	–	–	0.0372	0.0561	0.0537	0.0515	0.0545	0.0529
G166F	0.0514	0.0353	–	0.0588	–	0.0535	0.0544	–	0.0618	0.0403	0.042	0.0518	0.0432	0.0451	0.0618	–	–	0.0484	–
G166W	0.0561	–	–	0.0174	0.0492	–	0.0524	0.0554	0.0477	0.0589	0.0492	0.054	0.0317	0.0661	–	0.0488	–	0.0584	–
I167R	0.0402	–	0.0641	0.0546	0.0725	–	0.0597	0.0594	0.0497	0.0589	–	–	0.0455	–	0.047	0.0646	–	0.0488	0.0263
I167V	0.06	0.0746	0.059	0.0636	0.0687	0.0417	0.057	–	–	0.0568	0.0612	0.0682	0.0567	0.0537	–	–	–	0.0587	–
S171C	0.0629	–	–	0.0627	0.0681	–	0.0546	0.0455	0.0759	0.0523	0.0559	0.0616	0.0237	0.0182	–	–	0.079	0.0657	0.0492
S171H	0.054	0.0501	0.0619	0.0587	0.0688	0.0582	0.0609	0.0498	0.0589	0.0577	0.0675	0.0714	–	0.0758	0.0569	–	0.0621	0.0623	0.0536
F173H	0.0598	0.051	0.0598	0.0632	0.0716	0.0624	0.0528	0.0813	0.0603	0.0616	0.0026	0.0494	–	0.057	0.053	0.0599	0.0567	0.0595	0.0541
N177C	0.0342	0.0501	–	0.08	0.0685	0.0758	0.0593	0.0726	0.0719	–	–	0.026	0.0402	0.0518	–	–	0.0582	–	0.0622
N177I	0.065	–	0.0607	0.0715	0.0698	0.0604	0.0518	–	0.0675	0.052	0.0861	–	0.0493	–	–	0.0712	–	0.0673	–
N177P	0.0568	0.0573	0.0754	0.0597	0.0486	0.0441	0.0628	0.0584	0.065	0.0624	–	0.0669	0.0593	0.0547	0.0616	–	0.0697	0.0503	–
